Assay results published in the supplement of paper PMC3334620.
The full ranking holds about 33,000 sequences; the median of “E-score (-0.5 to 0.5)” is about -0.035, and the highest 2% start at about 0.35. This is one part of the list.

Molecular target: T1, Pdr3 (UniProt P33200)
T1 sequence: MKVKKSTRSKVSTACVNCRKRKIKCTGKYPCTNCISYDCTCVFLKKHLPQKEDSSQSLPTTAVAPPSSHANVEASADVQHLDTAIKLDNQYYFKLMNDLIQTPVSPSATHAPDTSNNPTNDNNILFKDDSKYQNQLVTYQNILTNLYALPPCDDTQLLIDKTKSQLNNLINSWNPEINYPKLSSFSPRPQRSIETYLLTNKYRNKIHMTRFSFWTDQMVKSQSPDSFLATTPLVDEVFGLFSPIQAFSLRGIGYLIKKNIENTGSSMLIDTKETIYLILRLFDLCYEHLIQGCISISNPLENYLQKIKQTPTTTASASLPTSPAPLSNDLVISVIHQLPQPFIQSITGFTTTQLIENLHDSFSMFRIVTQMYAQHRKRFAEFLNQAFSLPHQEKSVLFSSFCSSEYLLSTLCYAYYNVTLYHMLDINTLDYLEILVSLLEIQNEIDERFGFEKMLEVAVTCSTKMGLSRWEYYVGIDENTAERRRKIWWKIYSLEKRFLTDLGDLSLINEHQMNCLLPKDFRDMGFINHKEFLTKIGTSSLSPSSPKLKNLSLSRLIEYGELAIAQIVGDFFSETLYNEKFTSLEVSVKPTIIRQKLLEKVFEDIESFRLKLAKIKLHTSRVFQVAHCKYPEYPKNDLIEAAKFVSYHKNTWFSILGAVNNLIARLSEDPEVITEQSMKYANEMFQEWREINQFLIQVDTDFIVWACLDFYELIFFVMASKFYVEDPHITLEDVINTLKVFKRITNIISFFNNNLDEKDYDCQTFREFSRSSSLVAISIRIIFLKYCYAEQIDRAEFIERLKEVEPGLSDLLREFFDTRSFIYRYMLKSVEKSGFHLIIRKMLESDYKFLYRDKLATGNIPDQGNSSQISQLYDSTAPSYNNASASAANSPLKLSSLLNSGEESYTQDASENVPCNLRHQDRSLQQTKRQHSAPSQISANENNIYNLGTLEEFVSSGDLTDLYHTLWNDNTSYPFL
Experiment: PBM E-score (8-mer binding enrichment) (E-score (-0.5 to 0.5)); higher = stronger / more preferred TF binding; most listed sequences are background and not binding sites
Details: protein concentration: 200 nM; construct: GST-full length
Outline: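 GST-tagged yeast TFs (full-length or DNA-binding domain) were made by PURExpress in vitro transcription/translation and applied at about 100-200 nM to universal all-10-mer Agilent arrays. The arrays were made double-stranded by primer extension, on fresh or once-stripped slides. Bound protein was detected with fluorescent anti-GST, and scans were normalised with masliner. Each ungapped eight-base word, pooled with its reverse complement, received an E-score (modified Wilcoxon-Mann-Whitney statistic) from the Universal PBM Analysis Suite.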

Sequence | PBM E-score
CGGGCTAG | 0.0893
GGTGGAAC | -0.0744
TGCGGAAA | 0.357
CACTAGAG | -0.16
AGTCGCGG | 0.0617
ACATATCC | 0.0848
GAGCCTCC | -0.0141
TAGATGCA | -0.206
ACTGTTCC | 0.222
AAGTCCCG | 0.222
AAATTGTC | 0.0406
ACGAGAAA | 0.119
AGCTTTGC | -0.0649
AAGTTAAT | -0.114
ATGTGCGC | 0.0633
CAGTGGAG | -0.0442
CGGCTTCA | 0.24
AGGCGTAG | -0.142
CGCTCGGC | 0.234
CCCGACCA | 0.155
ACAAGCAG | -0.164
CACTTGCG | -0.123
ACGGACGT | 0.137
CAATTGCA | -0.0954
GATGAGCA | -0.097

Sequence | PBM E-score
AATAGAAA | 0.0203
CACAAAGC | -0.0103
GTCCGCAC | 0.215
GAACCCTA | -0.0298
AGAGTTTC | -0.136
CAGGAGTA | -0.107
CGGATTTC | 0.283
TCAGGGGA | -0.0352
AAATCTCG | 0.125
AGTCCCAT | -0.136
TCTGTCCA | 0.0987
GGTTCGAA | 0.0679
CAGTGAGG | -0.309
CCTCTCAA | 0.0885
CCCCGCAA | 0.198
CCACCTTC | -0.19
CGCGGCCA | 0.296
GTAGCTTA | -0.0826
CATCCTCC | -0.139
AGAACTTG | -0.226
AATGGCTG | -0.0728
AAGCCAGC | -0.092
CTTCTATC | -0.0244
CCGGCCTA | 0.184
CAACCCTA | -0.234

Sequence | PBM E-score
ATAGTCGC | -0.0229
ATGTGAGA | -0.0881
CGTGGCTC | -0.134
ATTACTCG | 0.0715
ATACTGTG | -0.0652
ATCATTAC | 0.0179
CCGCATTC | 0.192
ACCACTCA | -0.0827
CCTCGCCC | -0.00414
ACGGGGCT | -0.0607
CTAATCAG | -0.0177
GTTGATTA | 0.0474
CAGCACAA | 0.00828
ACAAGAAC | 0.123
CCGCCATC | 0.0607
TATCTACA | -0.0547
GAGGTAAC | 0.106
CACAATGG | 0.0941
CATCATTA | 0.195
TTATATAA | 0.176
GAGCATGC | -0.0163
AGCGGCGG | 0.335
AGCATATA | 0.0856
CGCCCCAG | 0.0925
CCTTGATC | 0.033

Sequence | PBM E-score
ACATGAAG | -0.0477
CCAACTGC | 0.0661
ACAGCGGA | 0.298
AAGCGGGA | 0.198
CACCGAGA | 0.00833
AACCGCAC | 0.0403
CTCTACAA | -0.134
GGGTCAGA | -0.145
AGATACAA | -0.00158
GATTAGAC | -0.154
GCACATGC | -0.0153
GGTGCTAC | -0.148
CCGGATTA | 0.385
AGCGGACC | 0.175
CTGTCGCA | -0.0708
ATAACGGC | 0.135
ATTGCTTA | -0.122
ACCAGAAT | -0.0736
CATAAACG | -0.0208
ACACATCG | -0.245
GGCGTCAA | -0.0443
ATTTTGTG | 0.0339
ACCCGCAT | 0.196
CCACAGCG | -0.0122
GCCCGCCA | 0.163

Sequence | PBM E-score
CAGCTTAG | -0.161
ATTTGCAC | -0.0996
ATACTCAC | -0.141
CGTACATC | -0.0165
ATGAGGGG | -0.161
GAGTAAGC | -0.116
CCTACGGA | 0.239
GCCGTTTA | 0.0844
CGTTTGTA | -0.0104
GAAGTGGC | 0.0291
ATGTTCAC | -0.034
AGGCGCTG | 0.0991
CCGACATC | 0.15
CTCTTCAG | -0.243
CATGCTCC | -0.0366
AGTGCGGG | 0.185
AGAACAGA | 0.00211
CTTTTGAC | -0.222
CGACCAAG | -0.138
TGGAAAAA | 0.0433
AGTACTAG | -0.0196
TATCCGCA | 0.335
GAGAATCA | -0.0676
ATTCCAGA | 0.0594
CATGGGGA | -0.121

Sequence | PBM E-score
GATGTCAA | -0.133
TATATATA | 0.334
ATGCATGG | 0.159
AGGGAATA | 0.12
CGTTATTA | 0.128
ACAAGGAC | -0.214
CTCGTCTC | 0.00964
AGACCTCC | -0.0942
ACGTACGC | -0.331
CAAGCATC | -0.0853
ATCTGGTA | -0.0522
GTAAGTTA | -0.0961
ATTATGAC | -0.0247
CGGGACCC | 0.339
CTTGAGGA | -0.0818
CTTTGTTA | -0.0164
CACGCTCG | -0.0963
AGCGCCCC | 0.0307
ACCCGTCA | 0.146
AGTGCAAA | 0.019
GTGAGCAC | -0.135
CAGGTGCA | 0.0121
CAACATAA | 0.0957
CAAATCGG | 0.257
AATGGGAC | -0.15

Sequence | PBM E-score
CACGATCG | 0.068
GTCGTCCA | -0.0251
ACATATGA | -0.107
AGGGTTAG | -0.221
CGGACTCC | 0.329
AAGACCGG | 0.0295
CCTCAGGC | -0.0418
CGATAAAA | 0.0668
ACCCTTAC | -0.202
AACCTTGC | -0.117
CTTTCAAC | -0.118
AAATACAC | -0.0617
CAACTGCA | -0.0308
CACGTCTG | -0.0891
CAGCTAGG | -0.228
ACGTCACA | -0.134
CGATATAG | 0.0721
CGGTGAAC | 0.0516
GGGCGACC | 0.0233
GCGGAACA | 0.474
AACCTAAA | -0.0113
AGATGATA | 0.1
AGGTACGA | -0.0844
GAAGCCAC | -0.00782
AAACAGCT | -0.0116

Sequence | PBM E-score
GAAGCAGA | -0.165
GATGAATA | 0.13
CACACTTC | 0.0829
CATTGCCG | 0.118
AGTAGACA | -0.115
CCCGTCAA | 0.125
CCTTGACA | -0.209
CTTTTTGA | -0.207
ACATATCT | 0.0252
ACTTAGCC | -0.18
CGCTGTTA | -0.112
AATGTGTG | 0.0121
AGTGGGTG | 0.125
AACCCTGG | -0.182
ATTGTGTA | -0.0751
AGAGTCAG | -0.136
AGCAGGAG | -0.0581
GTGTCGAA | -0.147
AACAAAGG | 0.0254
CCGACTTA | 0.247
CCACCACA | -0.00907
CTATTCCC | 0.0883
ATTGGGAA | -0.0305
TGCTTTAA | -0.0637
GACGTTCA | -0.166

Sequence | PBM E-score
GCGGCCCA | 0.167
CTACATTC | -0.136
GGAAAACC | 0.182
GCCCGTCA | 0.138
CATCCATC | -0.14
GCGTCGAC | 0.0956
GTTCTTGA | -0.166
CCCTTACA | -0.124
CCGAGTGC | 0.266
AATCCTGA | -0.0393
CATGTTCA | -0.146
ATTAGTAA | 0.0892
ATCGTTCG | 0.033
GAGCCCTA | -0.0956
CACGAATC | -0.0137
CGTATACA | -0.0682
CACTTCTG | -0.146
CATTTTTA | -0.0675
AGCTGCTA | -0.176
